Source: PubChem BioAssay AID1345083 (National Center for Advancing Translational Sciences (NCATS), 2018)
About 6,200 (6.6%) of roughly 94,000 compounds were called active. This list was built around the results that the source calls inconclusive (neither active nor inactive); the mix of calls is not that of the screen. Calls come from the whole dose curve; as a rule, active = well fitted inhibition curve with a large enough effect; inconclusive = small, poorly fitted or top-dose-only effect; inactive = flat fitted curve, though single readings scatter. Potencies beside an inconclusive call are fits to weak or partial responses and may not hold up.

experiment: Cytotoxic Profiling in HEK 293 Cell Line of Diverse Libraries Using Quantitative High-Throughput Screening; conditions: HEK 293 viability, ATP luminescence (CellTiter-Glo), 48-72 h; activity change, negative = cytotoxicity: at 115 µM (top of the series) unless noted; series mostly up to 115 µM; note: nearly all actives have a fitted effect of over 60% in size
How it was run: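 Cells seeded first (HEK 293, 250 cells/well), then compound added by pintool. Incubation ran 48 or 72 hr at 37 degree Celsius. CellTiter-Glo was added and luminescence imaged after 10 min at room temperature.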
% is set by controls: 0 for no effect and ±100 for the full control effect; potency is the fitted concentration of half-maximal effect; tags give direction and shape of the fitted curve.

Which “outcome” value does the source give for `COc1ccc2c(c1)OC[C@@H]1CN(CCC#N)C(=O)CCN(C(=O)c3ccccc3OC)[C@H]21` here?
The value was “inactive”.

Which Potency does the source give for `CC[C@H]1CN(C(=O)c2ccc(F)cc2)CC[C@H]1CC(=O)Nc1nccs1` here?
The Potency was inconclusive: 100 µM [inhibitor, partial curve].

With `CC(C)Cn1c(CN(C)CCC2CCCCO2)cnc1S(=O)(=O)Cc1ccccc1` (stereo not given) as the compound, how does the Potency read?
Its Potency is inconclusive: 31.6 µM [inhibitor, partial curve, poor fit].

For `O[C@@H]1C[C@@H](c2nc(Cc3ccc(F)cc3Cl)no2)N(Cc2ncc[nH]2)C1`, which Potency is on record?
Its Potency is inconclusive: 100 µM [inhibitor, partial curve, poor fit].

Which “outcome” value does the source give for `O=C(NCCCn1nnc2ccccc21)C1CC(=O)N(Cc2ccccn2)C1` (stereo not given) here?
The value was “inactive”.

Which Potency does the source give for `COc1ccc(CN2CCC[C@H]2c2nc(-c3ccnc(N4CCOCC4)c3)no2)cc1` here?
The Potency was inconclusive: 79.4 µM [inhibitor, partial curve, poor fit].

For `O=C(NCC(F)(F)F)c1ccc2nnc(-c3cncc(Cl)c3)n2c1`, which “activity change, negative = cytotoxicity” value is on record?
Its value is inactive: -4.79%.

For `COc1ccc(C)cc1-c1nccc2c(=O)cc(-c3cnn(C)c3)oc12`, which Potency is on record?
Its Potency is inconclusive: 79.4 µM [inhibitor, partial curve, poor fit].

For `CC(C)N1C(=O)C2(CCCC2)C1C(=O)NC1CC1` (stereo not given), which “activity change, negative = cytotoxicity” value is on record?
Its value is inactive: 3.63%.

Which Potency does the source give for `Cn1ncc2c(C(=O)Nc3cccc(F)c3)cc(-c3ccccc3F)nc21` here?
The Potency was inconclusive: 89.1 µM [inhibitor, single point].

For `CCCNc1cc(N2CCC(CCC(=O)N3CCN(c4ccc(F)cc4)CC3)CC2)ncn1`, which Potency is on record?
The Potency was inconclusive: 44.7 µM [inhibitor, partial curve, poor fit].

For `Cc1cccc(-c2cccc(CCOc3cnc4c(ccn4CC(=O)O)c3)c2)c1`, which Potency is on record?
The Potency was inconclusive: 100 µM [inhibitor, partial curve, poor fit].

Which Potency does the source give for `COc1ccccc1-c1[nH]nc2ncc(C(=O)N3CCN(Cc4ccccc4)CC3)nc12` here?
The Potency was active: 100 µM.

Which Potency does the source give for `COc1ccc(CC(=O)N2CCCN(c3cc(-c4ccc(OC)cc4)[nH]n3)CC2)cc1` here?
The Potency was inconclusive: 50.1 µM [inhibitor, partial curve, poor fit].

Which “activity change, negative = cytotoxicity” value does the source give for `COc1ccccc1-c1[nH]ncc1CN1CCCCCNC(=O)[C@@H]2CCC[C@@H]21` here?
The value was inactive: -3.45%.

For `COCCC1(NS(C)(=O)=O)CCN(C(=O)C2(c3ccc(OC)cc3)CC2)CC1`, which “activity change, negative = cytotoxicity” value is on record?
The value was inactive: -29.4%.

With `N#Cc1cccc(CN2CCc3ncc(C(=O)NCCOc4ccccc4)n3CC2)c1` as the compound, how does the Potency read?
The Potency was active: 28.2 µM.

With `Cc1cn2nnc(C(=O)NC3CCCCCC3)c2c(=O)[nH]1` as the compound, how does the Potency read?
The Potency was inconclusive: 56.2 µM [inhibitor, partial curve, poor fit].

Which “activity change, negative = cytotoxicity” value does the source give for `CCS(=O)(=O)C(C)C(=O)Nc1ccc(OC)c(NC(=O)c2ccco2)c1` (stereo not given) here?
The value was inactive: 4.9%.

With `COc1ccc(F)cc1-c1ccc(CN2CCCCC2C(=O)N2CCN(c3ncccn3)CC2)cc1` (stereo not given) as the compound, how does the Potency read?
The Potency was active: 44.7 µM.

Which Potency does the source give for `O=C(Nc1cccc(Cl)c1F)N1CCCC(Cn2c(C3CC3)nc3cccnc32)C1` (stereo not given) here?
Its Potency is inconclusive: 50.1 µM [inhibitor, partial curve, poor fit].

Which Potency does the source give for `CCN1c2cc(C(=O)Nc3ccc(C)cc3)ccc2C(=O)N2CCCCCC21` (stereo not given) here?
Its Potency is active: 39.8 µM.

Which Potency does the source give for `CN(C)c1ccc(-c2ccnc(N[C@H]3CO[C@H]4[C@@H]3OC[C@H]4OC(=O)Nc3ccc(Oc4ccccc4)cc3)n2)cc1` here?
The Potency was inconclusive: 7.94 µM [inhibitor, full curve].

With `O=C(Nc1cccc(-n2cccn2)c1)C1CCCN1C(=O)CCn1cccn1` (stereo not given) as the compound, how does the “activity change, negative = cytotoxicity” value read?
Its value is inactive: -5.84%.

With `COc1ccc2cc1Nc1ccc(cc1)C[C@H](NCc1ccncc1)C(=O)N(C)[C@H](C(=O)NCc1ccc(OC(F)(F)F)cc1)C2` as the compound, how does the Potency read?
The Potency was inconclusive: 56.2 µM [inhibitor, partial curve, poor fit].

With `O=C(Cc1cccs1)N1CCC(n2cc(-c3nc(-c4ccccc4)no3)nn2)C1` (stereo not given) as the compound, how does the Potency read?
Its Potency is inconclusive: 89.1 µM [inhibitor, partial curve, poor fit].

With `COC(=O)[C@@H]1Cc2c([nH]c3ccccc23)[C@H]2C[C@H](NCCc3cnc[nH]3)C[C@@H](c3ccccc3F)N21` as the compound, how does the Potency read?
Its Potency is active: 22.4 µM.

For `OC(c1nc(Nc2cccc(Cl)c2)n[nH]1)C1CC1` (stereo not given), which “activity change, negative = cytotoxicity” value is on record?
Its value is inactive: -17.3% [at 230 µM].

Which Potency does the source give for `C[C@H]1CCCN1C(=O)c1nnc(CNc2ccccc2Cl)n1-c1ccccc1` here?
Its Potency is inconclusive: 100 µM [inhibitor, partial curve, poor fit].

With `COc1cccc(CC(=O)N2CCCCCC2c2nnc(-c3ccccc3)o2)c1` (stereo not given) as the compound, how does the Potency read?
Its Potency is inconclusive: 89.1 µM [inhibitor, partial curve, poor fit].

Which “activity change, negative = cytotoxicity” value does the source give for `COc1ccc(N2CC(C(=O)N3CCC(C(=O)NCC(F)(F)F)C3)NC2=O)cc1` (stereo not given) here?
Its value is inactive: -4.11%.

Which Potency does the source give for `CC(C)(O)CCc1cccc(C(=O)N2CCC(Nc3ncccn3)CC2)c1` here?
The Potency was inconclusive: 89.1 µM [inhibitor, partial curve, poor fit].

Which Potency does the source give for `CCOc1ccccc1C(=O)NC1CCN(c2cc(-c3ccc(Cl)cc3)[nH]n2)CC1` here?
The Potency was inconclusive: 28.2 µM [inhibitor, full curve].

For `COc1cccc(-c2cc(C3CCN(C(=O)c4ccc(Br)cc4)CC3)[nH]n2)c1`, which Potency is on record?
The Potency was inconclusive: 50.1 µM [inhibitor, partial curve, poor fit].

Which Potency does the source give for `CC(=O)NC1(C)CCCN(Cc2ccc(Oc3ccccc3)cc2)C1` (stereo not given) here?
Its Potency is inconclusive: 89.1 µM [inhibitor, partial curve, poor fit].

Which Potency does the source give for `COc1cc(Cl)ccc1C(=O)N1CCC(Cc2nc(-c3ccc(F)cc3)no2)CC1` here?
The Potency was inconclusive: 56.2 µM [inhibitor, partial curve, poor fit].

For `O=S(=O)(c1ccc2c(c1)CCC2)N1CCCC(Cn2c(C3CC3)nc3cccnc32)C1` (stereo not given), which “activity change, negative = cytotoxicity” value is on record?
The value was inactive: -4.17%.

Which Potency does the source give for `CCC1Oc2ccc(NS(=O)(=O)c3ccc(C)c(F)c3)cc2CN(Cc2ccc(OC)cc2)C1=O` (stereo not given) here?
The Potency was inconclusive: 39.8 µM [inhibitor, full curve, poor fit].

With `O=C(NCc1cccnc1)C1CCN(c2nc(-c3ccccc3)nc3c2CCC3)CC1` as the compound, how does the Potency read?
The Potency was inconclusive: 50.1 µM [inhibitor, partial curve, poor fit].

For `Cc1noc([C@@H]2CN(Cc3ccccc3C#N)C[C@H]2C(N)=O)n1`, which “activity change, negative = cytotoxicity” value is on record?
The value was inactive: -11.7%.
